From publication PMC12136788
The other results are listed elsewhere or left out.

T1: UNK ZnF1-3 (human, UniProt Q9C0B0 31-174)
T1 sequence: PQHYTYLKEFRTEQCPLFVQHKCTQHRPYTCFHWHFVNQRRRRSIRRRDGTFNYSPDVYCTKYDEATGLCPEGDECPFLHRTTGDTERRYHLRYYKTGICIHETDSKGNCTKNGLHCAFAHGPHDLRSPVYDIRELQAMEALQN

B1: chr16:16324163:16324164:-_ENSMUSG00000022789_ENSMUST00000023477|mus_hu|motif|central (ssRNA)
RNA: GGGAGUUCUACAGUCCGACGAUCUCUAAUGGCAGUCAAAAUGUCAAUAGUGUUAAGGCCACCAAGUGGAUCAACAGAUUCGGAGGUUCGCCCAAAAGUCUCAUGGAAAAUAUAACAAAUUCUAGCACCACCGCAUAGCUCCGACAACAGAGGAUUGAGCAUCA
B2: chr15:80081215:80081216:+_ENSMUSG00000022412_ENSMUST00000023048|mus_hu|FALSE|FALSE (ssRNA)
RNA: GGGAGUUCUACAGUCCGACGAUCCCUGCAAAUAACUUUGCAUUCAGCUUAUCCUGUGUGGGUCAUUAACAGUGUUCCCAUGAGAGACAUUCUCAGCAUUUAUGAAUGGGUCAGGAGGUUGGGGGGAGGAUGGACUUCUACUCCCAACAGAGGAUUGAGCAUCA
B3: chr16:8992458:8992459:-_ENSG00000187555_ENST00000381886|hu_mus|motif|central (ssRNA)
RNA: GGGAGUUCUACAGUCCGACGAUCUUGUCUUGGCUUGAAGAAUUGUAGAAGAUCUCUUAAAGUACCUUCGUAAUUAUGCCGGAGAGGAUUACCGGGGCCGUCCCUAUAACCUUGAGACUUGAAAAACUGCAGCAGCAUGGGGUCCAACAGAGGAUUGAGCAUCA
B4: chr2:39052001:39052002:-_ENSMUSG00000026753_ENSMUST00000028087|mus_hu|FALSE|FALSE (ssRNA)
RNA: GGGAGUUCUACAGUCCGACGAUCCAACUGGUAUCAAAUUAACACAUCAGCAUUACAAGUAUUAAAUGUUUUUCUAUUACUAUAGAGGAUAUAAACCAAAACAUUAAUAUGGCAGUUAUGUUCUUUAGGCACAGUUUAGUGAUUCAACAGAGGAUUGAGCAUCA
B5: 148321547_148323037_4512_CDS_ENSMUSG00000025261_ENSMUST00000112622|mouse|control|control (ssRNA)
RNA: GGGAGUUCUACAGUCCGACGAUCGGAGGCCUGUGGCAGGGUAGCCAUCUGACUGAUCCACUCUGAAACUGUUUUUGUGUCACUUGUUGUUAGAGGAAGAGCAGCUUUGAUCAAUACAUCAGCAGCUUCCCACACCUGGUUGACCAACAGAGGAUUGAGCAUCA
B6: chr7:141441981:141441982:+_ENSG00000106028_ENST00000265304|hu_mus|hu_hu_hu_mus_False|1_18 (ssRNA)
RNA: GGGAGUUCUACAGUCCGACGAUCCUCAUGUCUUACAAACUGACGAAAUACCUGUAACACAGGUCUUCGAAACAUGGCUUCUGUUUUUCUUACAACCUAAUCUUUAGGCUUUUCCUACCUGACGAUCAGAAAAGAGAAGCCCAGCAACAGAGGAUUGAGCAUCA
B7: chr1:153210542:153210543:+_ENSMUSG00000023150_ENSMUST00000023918|mus_mus|FALSE|FALSE (ssRNA)
RNA: GGGAGUUCUACAGUCCGACGAUCUUGCAGUUAGCAACAUCUACCCCACCCACCCUCCUUAUUCACAAGUGUACCUCUACUAAACACAAUUACAUCACUAAGCCUGUUAGUUUGGGGUUCUUAAAUUUGUUAAAACUGGAAAAUCAACAGAGGAUUGAGCAUCA
B8: chr3:150289932:150289933:+_ENSG00000144895_ENST00000460851|hu_hu|hu_hu_hu_mus_False|18_18 (ssRNA)
RNA: GGGAGUUCUACAGUCCGACGAUCCUUGUAGUUUUUAACAUCCCAUACUUCCAUUUGUCCUCGAAGAUUUCCAAAUCCAGCCAGCACUAAUAUAUGUCCAUGAGGGCUAUAGAAGGCUGCAUUACGAGGACCAGUCCCAAAGUCCAACAGAGGAUUGAGCAUCA
B9: chr14:55515796:55515797:+_ENSMUSG00000022194_ENSMUST00000116476|mus_mus|FALSE|FALSE (ssRNA)
RNA: GGGAGUUCUACAGUCCGACGAUCGAACAGGGACUCAUCUAAGGCCAGGGACGUCCUCACUGACUCUUUGUCCGAGAACUCUAUAUAUGCAAACCCUUUGGGAUGGCCACUAAAUUUGUCACAGAGUAUAGUAACACGGUUGACCAACAGAGGAUUGAGCAUCA
B10: chr1:192983433:192983434:-_ENSG00000116750_ENST00000367455|hu_hu|FALSE|FALSE (ssRNA)
RNA: GGGAGUUCUACAGUCCGACGAUCAUCACAAGGGAUUUGCAAUCACCAAAGAAGAUGCAGAUAAAAUAAACCACUCUUAAGCUAUGGAAAUUCCUAUUAAGGAAUUUUAUUAGAUUAAUAAGAAAAAUCCUUAUACCUAUUAAUCAACAGAGGAUUGAGCAUCA
B11: chr4:148702617:148702618:-_ENSMUSG00000028960_ENSMUST00000103212|mus_hu|FALSE|FALSE (ssRNA)
RNA: GGGAGUUCUACAGUCCGACGAUCUUAGGAAUUGAACAGAGGACAUUGUCUGUGGAGGGAAAAAAGGAAAAGAAAAAAGAAAGUAUGCUUUUUAUAGACUUAAUUUCUUCAGAACACUUUAUGGUUUCAAAUCCUUUUUUUUUUCAACAGAGGAUUGAGCAUCA
B12: chr11:77336104:77336105:-_ENSG00000074201_ENST00000525064|hu_mus|hu_hu_hu_mus_False|28_68 (ssRNA)
RNA: GGGAGUUCUACAGUCCGACGAUCCUCACACAUUGCUGUGAACAUCGCCUCCAAUGCUGACUUAUCACUAGGCACAAAUCGAAAUUCAGAAAUGGGUUCAACAUCAUCAUCACUGUCCUCAUCUUCAUCAGAGAGAGGUUCUUUCAACAGAGGAUUGAGCAUCA
B13: 99631881_99632001_2047_3pUTR_ENSG00000106261_ENST00000324306|human|control|control (ssRNA)
RNA: GGGAGUUCUACAGUCCGACGAUCGAUUAUAUGCCCAACUACUACAUAAAGGCAGAACACUGCUGAUGUGACUAGAAGGAUCCUUAAGUGUGACUUUUGUUUUUUAAUCUGUUGAGGCUGUAUUUCUUUUUCCCUCCAGGAGCACAACAGAGGAUUGAGCAUCA
B14: 142888890_142889010_6276_CDS_ENSMUSG00000031004_ENSMUST00000033310|mouse|control|control (ssRNA)
RNA: GGGAGUUCUACAGUCCGACGAUCGGGCUGAGCCCUGAUCUUAGGUGUCUGUGGCCUCCUCUUAUGUCCUGAUGAAUUUCCUGUGAAAUCCAGUUUCUGCUUUGGAGUUUCCAUGAAGGCUGUGCUGUCAUUUUCUUCCUGCACCAACAGAGGAUUGAGCAUCA

Target: T1, UNK ZnF1-3
Test: nsRBNS (natural sequence RNA bind-n-seq); RBNS binding buffer (assumed for nsRBNS): 25 mM Tris pH 7.5, 150 mM KCl, 3 mM MgCl2, 0.01% Triton X-100, 500 ug/ml BSA, 20 U/ml SUPERase-In, 4 C; UNK is unkempt and MSI1 is Musashi-1; names of the RNAs are library labels; protein concentration not given here; high values mean tight binding

| Binder | binding signal |
| --- | --- |
| B1 | 1.28 enrichment R |
| B2 | 1.11 enrichment R |
| B3 | 1.9 enrichment R |
| B4 | 0.817 enrichment R |
| B5 | 1.96 enrichment R |
| B6 | 0.623 enrichment R |
| B7 | 2.09 enrichment R |
| B8 | 1.18 enrichment R |
| B9 | 1.91 enrichment R |
| B10 | 0.34 enrichment R |
| B11 | 0.855 enrichment R |
| B12 | 1.08 enrichment R |
| B13 | 1.32 enrichment R |
| B14 | 0.532 enrichment R |
